The supplement of paper PMC12230231
± gives the standard deviation of the averaged measurements. Restriction of a single-cycle SIVsab GFP reporter by TRIM5α v1-loop variants in CRFK cells. Human variants: read share among cells still uninfected after two challenges over input, higher = gained restriction. Rhesus variants: share among infected cells over input, higher = lost restriction. Reporter dose not given per row. No active / inactive call per row; the paper calls a change when both replicates lie above its controls (mean + 2 SD of stop or wild-type variants, or the top frameshift score). Residues outside the varied loop are taken from Swiss-Prot. The paper reads the human single-substitution scores as noise; they and the rhesus combinations repeat poorly (rank correlation 0.3 to 0.4), indel scores repeat only for the top variants, rhesus substitutions well (0.9).

System: SIVsab (simian immunodeficiency virus of sabaeus monkeys), single-cycle GFP reporter, in CRFK cells
Test: enrichment among uninfected cells over input (fold); higher = stronger restriction
Method: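 Pools of CRFK cells expressing variants of the TRIM5α v1 loop were challenged with the single-cycle reporter, sorted by GFP and sequenced; mean of two replicates.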

[1] = library: human / rhesus combinations
[2] = library: insertions and deletions

Question: For “MASGILVNVKEEVTCPICLELLTQPLSLDCGHSFCQACLTANHKKSMLDKGESSCPVCRISYQPENIRPNRHVANIVEKLREVKLSPEGQKVDHCARHGEKLLLFCQEDGKVICWLCERSQEHRGHHTFLTEEVAREYQVKLQAALEMLRQKQQEAEELEADIREEKASWKTQIQYDKTNVLADFEQLRDILDWEESNELQNLEKEEEDILKSLTNSETEMVQQTQSLRELISDLEHRLQGSVMELLQGVDGVIKRTENVTLKKPETFPKNQRRVFRAPDLKGMLEVFRELTDVRRYWVDVTVAPNNISCAVISEDKRQVSSPKPQIIYGARGTRYTFPSFTNFNYCTGILGSQSITSGKHYWEVDVSKKTAWILGVCAGFQPDAMCNIEKNENYQPKYGYWVIGLEEGVKCSAFQDSSFHTPSVPFIVPLSVIICPDRVGVFLDYEACTVSFFNITNHGFLIYKFSHCSFSQPVFPYLNPRKCGVPMTLCSPSS [human TRIM5α, 330-340 = GARGTRYTFPSFT]”, which enrichment [1] is on record?
Answer: Its enrichment is 0.152 ± 0.029.

Question: For “MASGILVNVKEEVTCPICLELLTQPLSLDCGHSFCQACLTANHKKSMLDKGESSCPVCRISYQPENIRPNRHVANIVEKLREVKLSPEGQKVDHCARHGEKLLLFCQEDGKVICWLCERSQEHRGHHTFLTEEVAREYQVKLQAALEMLRQKQQEAEELEADIREEKASWKTQIQYDKTNVLADFEQLRDILDWEESNELQNLEKEEEDILKSLTNSETEMVQQTQSLRELISDLEHRLQGSVMELLQGVDGVIKRTENVTLKKPETFPKNQRRVFRAPDLKGMLEVFRELTDVRRYWVDVTVAPNNISCAVISEDKRQVSSPKPQIIYQARGTLYTFQSFVNFNYCTGILGSQSITSGKHYWEVDVSKKTAWILGVCAGFQPDAMCNIEKNENYQPKYGYWVIGLEEGVKCSAFQDSSFHTPSVPFIVPLSVIICPDRVGVFLDYEACTVSFFNITNHGFLIYKFSHCSFSQPVFPYLNPRKCGVPMTLCSPSS [human TRIM5α, 330-340 = QARGTLYTFQSFV]”, which enrichment [1] is on record?
Answer: Its enrichment is 0.213 ± 0.028.

Question: “MASGILVNVKEEVTCPICLELLTQPLSLDCGHSFCQACLTANHKKSMLDKGESSCPVCRISYQPENIRPNRHVANIVEKLREVKLSPEGQKVDHCARHGEKLLLFCQEDGKVICWLCERSQEHRGHHTFLTEEVAREYQVKLQAALEMLRQKQQEAEELEADIREEKASWKTQIQYDKTNVLADFEQLRDILDWEESNELQNLEKEEEDILKSLTNSETEMVQQTQSLRELISDLEHRLQGSVMELLQGVDGVIKRTENVTLKKPETFPKNQRRVFRAPDLKGMLEVFRELTDVRRYWVDVTVAPNNISCAVISEDKRQVSSPKPQIIYGARGTRYCTGILGSQSITSGKHYWEVDVSKKTAWILGVCAGFQPDAMCNIEKNENYQPKYGYWVIGLEEGVKCSAFQDSSFHTPSVPFIVPLSVIICPDRVGVFLDYEACTVSFFNITNHGFLIYKFSHCSFSQPVFPYLNPRKCGVPMTLCSPSS [human TRIM5α, 8-codon deletion at 336]” was tested. Which enrichment [2] did it give?
Answer: Its enrichment is 0.874 ± 0.6.

Question: “MASGILVNVKEEVTCPICLELLTQPLSLDCGHSFCQACLTANHKKSMLDKGESSCPVCRISYQPENIRPNRHVANIVEKLREVKLSPEGQKVDHCARHGEKLLLFCQEDGKVICWLCERSQEHRGHHTFLTEEVAREYQVKLQAALEMLRQKQQEAEELEADIREEKASWKTQIQYDKTNVLADFEQLRDILDWEESNELQNLEKEEEDILKSLTNSETEMVQQTQSLRELISDLEHRLQGSVMELLQGVDGVIKRTENVTLKKPETFPKNQRRVFRAPDLKGMLEVFRELTDVRRYWVDVTVAPNNISCAVISEDKRQVSSPKPQIIYGARGTRYQGTRYQTFVNFNYCTGILGSQSITSGKHYWEVDVSKKTAWILGVCAGFQPDAMCNIEKNENYQPKYGYWVIGLEEGVKCSAFQDSSFHTPSVPFIVPLSVIICPDRVGVFLDYEACTVSFFNITNHGFLIYKFSHCSFSQPVFPYLNPRKCGVPMTLCSPSS [human TRIM5α, 5-codon duplication at 333]” was tested. Which enrichment [2] did it give?
Answer: The enrichment was 0.766 ± 0.044.
